Some of the results follow.

This experiment deals with T1, OsWOX13 (Oryza sativa, UniProt Q5QMM3 1-267).
T1 sequence: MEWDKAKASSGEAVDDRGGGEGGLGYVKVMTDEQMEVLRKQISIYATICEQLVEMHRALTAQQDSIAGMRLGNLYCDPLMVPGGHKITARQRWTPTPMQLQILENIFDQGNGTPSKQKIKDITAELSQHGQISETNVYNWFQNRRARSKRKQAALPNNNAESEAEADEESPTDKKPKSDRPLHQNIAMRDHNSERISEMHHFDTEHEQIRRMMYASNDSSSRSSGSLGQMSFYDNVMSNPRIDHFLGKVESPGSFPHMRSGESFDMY
Briefly: protein-binding microarray (RPBM); PBS, 2% BSA, 51.3 ng/ul salmon testes DNA, 50 uM zinc acetate, 200 nM TF, 25 C, 1 h; high values mean tight binding. The conditions noted are these: protein: recombinant; tags: N-terminal polyhistidine and DsRed monomer fusion (pET32a); label: CyDye5-dUTP incorporated in the synthesized complementary strand; 3' TTTTT single-stranded linker to array surface; dsDNA, one strand shown. A digest of the protocol: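 Transcription factors were made in E. coli BL21-CodonPlus as N-terminal fusions to a polyhistidine tag and DsRed, then purified on Ni–NTA. After primer extension with Cy5-dUTP and blocking with 2% BSA, a custom Agilent array was exposed for 1 h at 25 °C to 200 nM protein in PBS, 2% BSA, salmon testes DNA and 50 µM zinc acetate. Washed arrays were scanned on an Axon 4000B, and the binding signal is per-feature fluorescence intensity in arbitrary units.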
Turning to “AAGTCAAATTAACTTATAATATGAAACAGACACGGTAGTACGGAGTCACCTAGTGCAG”, the binding signal is 11000 fluorescence intensity (a.u.).

As for “CAAATCATGGCACAATTAGGCTCAAAAGATTTGTCTCGCACGGAGTCACCTAGTGCAG”, the binding signal is 5280 fluorescence intensity (a.u.).

As for “TATCAGATTGCAACAACGGATCACATATGCACATCCCCTTCGGAGTCACCTAGTGCAG”, the binding signal is 3300 fluorescence intensity (a.u.). Regarding “ACTATAATTTGGGAAAACTAAAACCGCGCCACTCCGTCGTCGGAGTCACCTAGTGCAG”, the binding signal is 12700 fluorescence intensity (a.u.).

For “AAGCAAATTTGACTGCTGCTTTAGAGGTTGCCGAACTGGCCGGAGTCACCTAGTGCAG”, the binding signal is 16500 fluorescence intensity (a.u.). The figure for “CTGTGATGAGTTTGCTGTGTTGTCATCTTCTGTTAGTGGACGGAGTCACCTAGTGCAG” is 5580 fluorescence intensity (a.u.); for “AATTTCGTCAATAGATTATGACACCCGTGCCATTTCAGCGCGGAGTCACCTAGTGCAG” it is 4940 fluorescence intensity (a.u.); for “CTTCCCAATAAAAGGCGATGTAATTGATACCTGCCCGTTGCGGAGTCACCTAGTGCAG” it is 8060 fluorescence intensity (a.u.). Regarding “AACGTCGCCGTCAATTAAATTGTGCCACCGGTTACAAACACGGAGTCACCTAGTGCAG”, the binding signal was 4420 fluorescence intensity (a.u.).

Consider “ATTTAACACTAAATTTCTCACAGAACTACATATTTAATGTCGGAGTCACCTAGTGCAG”, for which the binding signal is 3590 fluorescence intensity (a.u.). Take “GTCGCGTAATTGCGCGCGCTTCGCGTGCGGCCGTGCAGTGCGGAGTCACCTAGTGCAG”: the binding signal is 6020 fluorescence intensity (a.u.). Take “AGTGGCGCCATCAACATCAATCTATTCTAGCTATCTCGGGCGGAGTCACCTAGTGCAG”: the binding signal was 3230 fluorescence intensity (a.u.). Turning to “ATACCGTGATTGGGATTACCTGTGACCTTGCCTATTTGACCGGAGTCACCTAGTGCAG”, the binding signal was 40900 fluorescence intensity (a.u.). For the sequence “GAAGTTTAATTAGCACACGAGTAGTTTGCAAGTTGTAAGGCGGAGTCACCTAGTGCAG”, the binding signal was 9120 fluorescence intensity (a.u.). For the sequence “CTTTAATTGCTTCTCTCTCTTCTCCCAATTGCAGTCCTCTCGGAGTCACCTAGTGCAG”, the binding signal was 37200 fluorescence intensity (a.u.). On to “GCTCTGATTAATTTCAAACTTCGATTATGGACTAGTCAACCGGAGTCACCTAGTGCAG”, for which the binding signal is 53400 fluorescence intensity (a.u.).

As for “ATGTCTGATCAATTAATTACCTTGCTATTGCTAACCAGGGCGGAGTCACCTAGTGCAG”, the binding signal is 19700 fluorescence intensity (a.u.). For the sequence “CTGACTGACTGGACCAGGTCACCCGCGAGGCCGCGACGTGCGGAGTCACCTAGTGCAG”, the binding signal was 16300 fluorescence intensity (a.u.).

With “GTGATGATTTTGTCATAGCTCATCAGTGTAGTATATGCCTCGGAGTCACCTAGTGCAG”, the binding signal is 19900 fluorescence intensity (a.u.). As for “TCAAATAATTATATTTTCTAAGTTTATAATATTTGTTTGACGGAGTCACCTAGTGCAG”, the binding signal is 10600 fluorescence intensity (a.u.). For “TACAATTTGACATGTTAAAATCACAACTTGACACAGGCATCGGAGTCACCTAGTGCAG”, the binding signal was 6650 fluorescence intensity (a.u.). As for “GGTTAACTGGTAAGTTTATTAGTTTTCTGGAATATTACTTCGGAGTCACCTAGTGCAG”, the binding signal was 23300 fluorescence intensity (a.u.). For the sequence “TTTGATTTGATCAAGTGGGAGGCAACCTTCTTGTTGTTTGCGGAGTCACCTAGTGCAG”, the binding signal was 50400 fluorescence intensity (a.u.). In the case of “CCCCTGATTTCCGATTTGTTTGGTCGATGGAGACTGGATGCGGAGTCACCTAGTGCAG” it was 21300 fluorescence intensity (a.u.); in that of “TTAAAAGTAATTGATTAACTACATATGAAAAGAAGATAGGCGGAGTCACCTAGTGCAG”, 35200 fluorescence intensity (a.u.). “AGTGATTGCATCCAGGAAAGTCACACTTGTGTAAGAAACTCGGAGTCACCTAGTGCAG”: the binding signal was 19800 fluorescence intensity (a.u.).

Take “ACTAATTTCTTCATTCCAATATATGAATACTCTCTTCGTCCGGAGTCACCTAGTGCAG”: the binding signal is 23200 fluorescence intensity (a.u.).

For the sequence “TTGACACCTAATTATTACCTACAGAGGTTTGCTAACCCAACGGAGTCACCTAGTGCAG”, the binding signal is 10500 fluorescence intensity (a.u.).

With “AATTGCCAATTCAAATTTGCTCAAAATTTTACTACACCGTCGGAGTCACCTAGTGCAG”, the binding signal is 4220 fluorescence intensity (a.u.). With “TGTAATGATGGCAATATATATCGATCTCCTCCTCTCTAATCGGAGTCACCTAGTGCAG”, the binding signal was 5070 fluorescence intensity (a.u.). Take “AAAATTGAGCAAAATTTAGGCCATAGAAAGGGAGAAGCTCCGGAGTCACCTAGTGCAG”: the binding signal was 6870 fluorescence intensity (a.u.).

Turning to “ATCTAATCTTGAATTAAACTCACTATCAATTCCCACCATCCGGAGTCACCTAGTGCAG”, the binding signal is 4380 fluorescence intensity (a.u.). In the case of “ATTAATTAGGCTCAAAATATTAGTCTCACGGTTTCCAGACCGGAGTCACCTAGTGCAG” it was 14700 fluorescence intensity (a.u.); in that of “TTTTCAATTTATTTAAATTTAAGGAGGTTACCGTGGCATTCGGAGTCACCTAGTGCAG”, 25400 fluorescence intensity (a.u.). In the case of “TTATAACATTATTGATTGATATCAACACTTGTATGCATAACGGAGTCACCTAGTGCAG”, the binding signal was 49700 fluorescence intensity (a.u.).

In the case of “AAAATTGGAAGTTTGAAGAAATTAGAATAATGTGACGGAACGGAGTCACCTAGTGCAG”, the binding signal is 3400 fluorescence intensity (a.u.).

Turning to “CAAAATAGACTTTTCTCATCATTAGTACATTGACATACCACGGAGTCACCTAGTGCAG”, the binding signal is 10300 fluorescence intensity (a.u.).

Consider “TTAAATGTTAAGCCTAATTACGTCATGGTTTGACAACGTTCGGAGTCACCTAGTGCAG”, for which the binding signal was 8450 fluorescence intensity (a.u.). The figure for “GGGTGGTTAATTTGTTTTAACGAGATGGTCAGTGTGAACGCGGAGTCACCTAGTGCAG” is 21200 fluorescence intensity (a.u.). In the case of “ATGTCAGATAATTAATTATTCCATTTATAGGTGTGTGAGGCGGAGTCACCTAGTGCAG” it was 24800 fluorescence intensity (a.u.); in that of “GCCTAATCAAATCATTCTCCGGCACGTACTACTGTACGTCCGGAGTCACCTAGTGCAG”, 3580 fluorescence intensity (a.u.); in that of “GTCGCTGTCATTTGGTTGTTTCATTTGTAATATTAGTTGTCGGAGTCACCTAGTGCAG”, 3360 fluorescence intensity (a.u.). For the sequence “ACCATCATAATGATGTTGACATGAAATCATAAATACTTTCCGGAGTCACCTAGTGCAG”, the binding signal was 4980 fluorescence intensity (a.u.). In the case of “CATTGACATGACATGACCAATTACTCCGTCCAGGGACCAGCGGAGTCACCTAGTGCAG”, the binding signal was 32200 fluorescence intensity (a.u.).

Take “ATAGATTTGTTATCCAAACACAAAAGTGACTTGGAGGGCTCGGAGTCACCTAGTGCAG”: the binding signal is 8580 fluorescence intensity (a.u.). With “TTTATAATTAGTGTCCAAACATCCGATGTGATAGGGACTTCGGAGTCACCTAGTGCAG”, the binding signal is 18500 fluorescence intensity (a.u.).

Take “TTTAGATTTCTTACTGTGTAAATTTACAACAAAGATTGTACGGAGTCACCTAGTGCAG”: the binding signal was 3320 fluorescence intensity (a.u.). Turning to “AGTACATTGATGACACTGAAGATTTTATCAACATTCAGTTCGGAGTCACCTAGTGCAG”, the binding signal was 4140 fluorescence intensity (a.u.).

For the sequence “CAAGTAATTAATCAACACATCAGCAGGCTAGCTCCTGTAACGGAGTCACCTAGTGCAG”, the binding signal is 13800 fluorescence intensity (a.u.). Take “ATAAGTTGGGCTGGTTTTCTGATTGAGGGATGTGATTCGACGGAGTCACCTAGTGCAG”: the binding signal is 3490 fluorescence intensity (a.u.). In the case of “GAATAATTTTGAAAATTTTGTACGATTATTATAGGTACAACGGAGTCACCTAGTGCAG” it was 25000 fluorescence intensity (a.u.); in that of “TAGATTAAATTAATATATTACCCACTAATTTTACCTATAACGGAGTCACCTAGTGCAG”, 19100 fluorescence intensity (a.u.). For “TAAATCACTAAATTATTAATGTCTTTAACAAGCATAGTGCCGGAGTCACCTAGTGCAG”, the binding signal was 11900 fluorescence intensity (a.u.).

Consider “TCCCATGATTTCTATTTCTCTAATCCTAATCTCATGCTTCCGGAGTCACCTAGTGCAG”, for which the binding signal was 15500 fluorescence intensity (a.u.).

The values are drawn from publication PMC7819943, “Rice protein-binding microarrays: a tool to detect cis-acting elements near promoter regions in rice”.
